From patent US11628159B2, “Cell-protective compounds and their use” (ETH ZURICH, priority 2017, dated 2023)

Key:
[1] = biological target: T1, GRK2 (Homo sapiens, UniProt P25098); assay: In vitro phosphorylation assay: GRK2-mediated phosphorylation of SRSF1 with purified proteins; format: biochemical
T1 construct: fused on or other part: hexahistidine tag
T1 sequence (P25098 1-669 limits assumed): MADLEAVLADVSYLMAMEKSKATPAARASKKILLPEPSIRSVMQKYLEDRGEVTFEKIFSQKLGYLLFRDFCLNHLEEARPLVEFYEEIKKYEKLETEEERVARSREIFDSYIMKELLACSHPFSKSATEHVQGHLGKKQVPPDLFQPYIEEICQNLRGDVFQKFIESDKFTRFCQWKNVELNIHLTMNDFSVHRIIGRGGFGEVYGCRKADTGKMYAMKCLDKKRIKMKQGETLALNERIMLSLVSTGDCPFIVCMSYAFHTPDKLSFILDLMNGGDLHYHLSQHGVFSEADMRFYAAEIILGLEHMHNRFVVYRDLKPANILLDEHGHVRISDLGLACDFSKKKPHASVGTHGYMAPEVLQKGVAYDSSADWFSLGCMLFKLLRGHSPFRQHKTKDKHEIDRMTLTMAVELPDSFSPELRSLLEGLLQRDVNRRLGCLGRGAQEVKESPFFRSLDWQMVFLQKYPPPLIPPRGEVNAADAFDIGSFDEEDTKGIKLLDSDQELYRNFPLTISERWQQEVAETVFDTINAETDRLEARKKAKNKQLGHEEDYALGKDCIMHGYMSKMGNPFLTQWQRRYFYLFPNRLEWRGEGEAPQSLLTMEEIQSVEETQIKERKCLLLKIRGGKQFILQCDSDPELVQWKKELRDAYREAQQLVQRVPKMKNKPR
Procedure: The GRK2-mediated phosphorylation of SRSF1 was determined with purified proteins in the presence of increasing concentrations of paroxetine or different small molecule compounds. SRSF1 phosphorylation is presented as % of control, which is the SRSF1 phosphorylation in the absence of inhibitor.
Recombinant human GRK2 protein and GRK2-S670A protein was expressed in and purified from Spodoptera frugiperda (Sf9) cells by the baculoviral expression system. […] Sf9 cells were infected with recombinant baculoviruses at an MOI of 2-3, 48 h after infection cells were harvested by centrifugation, lysed with lysis buffer (300 mM NaCl, 50 mM HEPES, pH 7.5 supplemented with 1% NP40, 1 mM PMSF and protease inhibitor cocktail) and applied to Ni-NTA chromatography. After overnight incubation at 4° C., unbound proteins were removed by washing with lysis buffer (20× column volumes) followed by 1× column volume of 30 mM imidazole-containing lysis buffer. Bound GRK2 was eluted by 300 mM imidazole in lysis buffer, desalted by PD10 column chromatograpy, supplemented with 20% glycerol and stored at −80° C. for further use. […]
Recombinant proteins were used for an in vitro phosphorylation assay with GRK2 and GRK2-S670A. […] After three washing steps with 5 ml of reaction buffer, filter-bound radioactivity was determined in a β-counter.

[2] = system: GRK2-mediated phosphorylation of Srsf1; assay: Cardiac Srsf1 phosphorylation under basal conditions in non-transgenic B6 mice after short-term treatment; format: in vivo, mouse; conditions: 10 mg/kg i.p., 5 h, immunoblot, relative to vehicle
Procedure: A, The GRK2-mediated phosphorylation of Srsf1 was determined by immunoblot in cardiac lysates prepared from hearts of non-transgenic B6 mice after treatment (i.p.) for 5 h with 10 mg/kg of 1-(1,3-benzodioxol-5-yl)-4-(cyclopropane-carbonyl)-3-hydroxy-2-phenyl-2H-pyrrol-5-one (“Compound-1”), 4-(1,3-benzodioxol-5-yl)pyrimidine (“Compound-4”), 1-(1,3-benzodioxol-5-ylmethyl)-5-(4-fluorophenyl)-2-methyl-pyrrole-3-carboxamide (“Compound-2”), or (4R)-N3-(1,3-benzodioxol-5-ylmethyl)-N4-[[3-(trifluoromethyl)phenyl]-methyl]pyrrolidine-3,4-dicarboxamide (“Compound-5”) relative to vehicle-treated B6 controls (“con”). […] B, Left panel: The AAC-induced cardiac p-Srsf1 content was determined in cardiac lysates from B6 mice with AAC after treatment for 7 days with 5 mg/kg/d of 1-(1,3-benzodioxol-5-yl)-4-(cyclopropane-carbonyl)-3-hydroxy-2-phenyl-2H-pyrrol-5-one (“Compound-1”) or (4R)-N3-(1,3-benzodioxol-5-ylmethyl)-N4-[[3-(trifluoromethyl)phenyl]-methyl]pyrrolidine-3,4-dicarboxamide (“Compound-5”) relative to vehicle-treated B6 controls with AAC (“AAC-con”). […] Right and lower panels: Cardiac function parameters were determined by echocardiography in B6 mice with AAC after treatment for 7 days with “Compound-1” or “Compound-5” relative to vehicle-treated B6 controls with AAC ((±s.d.; n=5 (A) and n=3 (B); Dunnett's Multiple Comparison Test vs. con (A) or AAC-con (B)).

[3] = system: B6 mice with AAC; assay: Chronic pressure overload (AAC) model, 7 days of treatment: cardiac p-Srsf1 and echocardiography; format: in vivo, mouse; conditions: 5 mg/kg/d for 7 days
Procedure: A, The GRK2-mediated phosphorylation of Srsf1 was determined by immunoblot in cardiac lysates prepared from hearts of non-transgenic B6 mice after treatment (i.p.) for 5 h with 10 mg/kg of 1-(1,3-benzodioxol-5-yl)-4-(cyclopropane-carbonyl)-3-hydroxy-2-phenyl-2H-pyrrol-5-one (“Compound-1”), 4-(1,3-benzodioxol-5-yl)pyrimidine (“Compound-4”), 1-(1,3-benzodioxol-5-ylmethyl)-5-(4-fluorophenyl)-2-methyl-pyrrole-3-carboxamide (“Compound-2”), or (4R)-N3-(1,3-benzodioxol-5-ylmethyl)-N4-[[3-(trifluoromethyl)phenyl]-methyl]pyrrolidine-3,4-dicarboxamide (“Compound-5”) relative to vehicle-treated B6 controls (“con”). […] B, Left panel: The AAC-induced cardiac p-Srsf1 content was determined in cardiac lysates from B6 mice with AAC after treatment for 7 days with 5 mg/kg/d of 1-(1,3-benzodioxol-5-yl)-4-(cyclopropane-carbonyl)-3-hydroxy-2-phenyl-2H-pyrrol-5-one (“Compound-1”) or (4R)-N3-(1,3-benzodioxol-5-ylmethyl)-N4-[[3-(trifluoromethyl)phenyl]-methyl]pyrrolidine-3,4-dicarboxamide (“Compound-5”) relative to vehicle-treated B6 controls with AAC (“AAC-con”). […] Right and lower panels: Cardiac function parameters were determined by echocardiography in B6 mice with AAC after treatment for 7 days with “Compound-1” or “Compound-5” relative to vehicle-treated B6 controls with AAC ((±s.d.; n=5 (A) and n=3 (B); Dunnett's Multiple Comparison Test vs. con (A) or AAC-con (B)). […]

[4] = system: GRK2-mediated phosphorylation of SRSF1; assay: Immunoblot of SRSF1 phosphorylation (pSRSF1) in HEK (human embryonic kidney) cells; format: cell-based; conditions: 10 microM, 60 h, relative to vehicle
Procedure: A, The GRK2-mediated phosphorylation of SRSF1/Srsf1 was determined by immunoblot in lysates from isolated neonatal cardiomyocytes from Tg-SRSF1 mice after incubation for 60 h with 10 microM of paroxetine, 1-(1,3-benzodioxol-5-yl)-4-(cyclopropane-carbonyl)-3-hydroxy-2-phenyl-2H-pyrrol-5-one (“Compound-1”) or 4-(1,3-benzodioxol-5-yl)pyrimidine (“Compound-4”) relative to vehicle-treated control (“C”) cardiomyocytes. B, Immunoblot detection of GRK2-mediated phosphorylation of SRSF1 (pSRSF1) was performed with lysates from HEK (human embryonic kidney) cells incubated for 60 h with 10 microM of 4-(1,3-benzodioxol-5-yl)pyrimidine (“Compound-4”), 1-(1,3-benzodioxol-5-ylmethyl)-5-(4-chlorophenyl)-2-methyl-pyrrole-3-carboxamide (“Compound-24”) or (4R)-N3-(1,3-benzodioxol-5-ylmethyl)-N4-[[3-(trifluoromethyl)phenyl]-methyl]pyrrolidine-3,4-dicarboxamide (“Compound-5”) relative to vehicle-treated controls (“C”).
Briefly, the hearts were dissected out from 2-3 day-old mice, atria and aorta were removed, and the hearts were transferred into sterile buffer A (137 mM NaCl, 5.36 mM KCl, 0.81 mM MgSO4, 5.55 mM dextrose, 0.44 mM KH2PO4, 0.34 mM Na2HPO4, 20 mM HEPES, 100 U/ml penicillin, 100 microg/ml streptomycin, pH 7.4). […]

[5] = system: Tg-RKIP mice; assay: Paroxetine treatment of Tg-RKIP mice (heart failure phenotype); conditions: 5 mg/kg body weight per day in drinking water, 8 weeks

## CC(C)Cc1ccc(C(C)C(=O)O)cc1 (racemic) [Compound-6, (±)-2-(4-isobutylphenyl)propanoic acid, reference compound]
[1]; result in words
  Inhibition of the in vitro phosphorylation of SRSF1 by GRK2: no inhibitory effect up to 1 mM

## Cc1c(C(N)=O)cc(-c2ccc(F)cc2)n1Cc1ccc2c(c1)OCO2 [Compound-2, 1-(1,3-benzodioxol-5-ylmethyl)-5-(4-fluorophenyl)-2-methyl-pyrrole-3-carboxamide]
[2]
  GRK2-mediated Srsf1 phosphorylation under basal conditions in the hearts of non-transgenic B6 mice: decreased

## O=C(NCc1ccc2c(c1)OCO2)[C@@H]1CSCC(c2ccc(F)cc2)N1 (stereo partly drawn) [Compound-3, (3R)—N-(1,3-benzodioxol-5-ylmethyl)-5-(4-fluorophenyl)thiomorpholine-3-carboxamide]
[1]; purified proteins, read-out: IC50 value, inhibition of GRK2-mediated SRSF1 phosphorylation
  IC50: 12.9 µM

## O=C(NCc1ccc2c(c1)OCO2)C1CNC[C@@H]1C(=O)NCc1cccc(C(F)(F)F)c1 (stereo partly drawn) [Compound-5, (4R)-N3-(1,3-benzodioxol-5-ylmethyl)-N4-[[3-(trifluoromethyl)phenyl]-methyl]pyrrolidine-3,4-dicarboxamide]
[3]; echocardiography
  cardiac performance after chronic pressure overload imposed by AAC: improved
[3]; relative to vehicle
  chronic pressure overload-induced cardiac p-Srsf1 content: retarded
[4]
  SRSF1 phosphorylation in human kidney cells: inhibited
[2]
  GRK2-mediated Srsf1 phosphorylation under basal conditions in the hearts of non-transgenic B6 mice: decreased

## Cc1c(C(N)=O)cc(-c2ccc(Cl)cc2)n1Cc1ccc2c(c1)OCO2 [Compound-24, 1-(1,3-benzodioxol-5-ylmethyl)-5-(4-chlorophenyl)-2-methyl-pyrrole-3-carboxamide]
[4]
  SRSF1 phosphorylation in human kidney cells: inhibited

## Fc1ccc([C@@H]2CCNC[C@H]2COc2ccc3c(c2)OCO3)cc1 [Paroxetine]
[5]; Tg-RKIP hearts
  cardiac content of activating Srsf1 phosphorylation: decreased
  splicing of Camk2d isoforms B/C: decreased
[5]; Tg-RKIP mice
  development of myocardial necrosis and signs of heart failure: retarded
